{"source": "PubChem BioAssay AID1461", "about": "(National Center for Advancing Translational Sciences (NCATS), 2008)", "note": "Values joined by “and” are separate entries in the source; they are usually repeats but may differ in a detail not shown here. Equal values may be shown once. Out of some 220,000 compounds screened, about 2,300 (1%) were called active. About 6% were inconclusive and are not listed. Calls follow the shape of the dose curve; as a rule, active = well fitted inhibition curve with a large enough effect; inconclusive = small, poorly fitted or top-dose-only effect, or effect the other way; inactive = no such curve, though single readings can be large or run the other way. The entries are a selection whose mix differs from that of the whole data set. % is scaled to controls: 0 for no effect and ±100 for the full control effect; potency is read from the fitted curve at half-maximal effect."}
{"target": "Neuropeptide S receptor (Homo sapiens) (UniProt Q6W5P4)", "sequence (Q6W5P4 whole entry, looked up)": "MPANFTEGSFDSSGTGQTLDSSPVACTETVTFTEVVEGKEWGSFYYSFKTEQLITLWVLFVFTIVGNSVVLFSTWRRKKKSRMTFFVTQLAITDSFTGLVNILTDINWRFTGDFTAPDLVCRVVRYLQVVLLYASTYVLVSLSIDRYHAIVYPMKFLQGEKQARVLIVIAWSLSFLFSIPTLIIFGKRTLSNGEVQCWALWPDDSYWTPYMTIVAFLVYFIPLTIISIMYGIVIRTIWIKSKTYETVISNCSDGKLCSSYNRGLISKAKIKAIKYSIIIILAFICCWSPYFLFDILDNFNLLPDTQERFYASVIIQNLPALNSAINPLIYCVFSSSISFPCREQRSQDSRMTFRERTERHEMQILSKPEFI", "assay": "qHTS Assay for Antagonists of the Neuropeptide S Receptor: cAMP Signal Transduction; also: nearly all actives have a fitted effect of over 50% in size", "conditions": "CHO-NPSR cells, cAMP TR-FRET, antagonist mode; series mostly up to 38.3 µM; activity change, negative = inhibition: at the top concentration", "excerpt": "NIH Chemical Genomics Center [NCGC] NIH Molecular Libraries Probe Production centers Network [MLPCN] MLPCN Grant: X01-DA026210-01 Assay Submitter (PI): Heilig, Markus Alexander NCGC Assay Overview: Neuropeptide S receptor (NPSR), previously known as GPR154, is a recently de-orphanized G protein coupled receptor. Its endogenous ligand is the 20 amino acids peptide Neuropeptide S (NPS). […] NPS and its receptor are found in various tissues. Specifically they are highly expressed in brain areas that have been implicated in modulation of arousal, stress and anxiety. Central administration of NPS in mice produces an unusual profile of activity by inducing wakefulness and arousal, while at the same time suppressing anxiety. Therefore, NPSR may represent a novel drug target for the treatment of sleep and anxiety disorders. To identify NPSR antagonists, we developed a cell-based cAMP assay. NPS can stimulate the production of cAMP in Chinese hamster ovary cells stably expressing NPS receptor. This change in intracellular cAMP level can be detected by a homogeneous LANCE cAMP assay based on the TR-FRET (time resolved fluorescence resonance energy transfer) between a europium-labeled cAMP tracer complex and a cAMP-specific antibody labeled with Alexa Fluor 647. The europium-labeled cAMP tracer complex is formed by the tight interaction between Biotin-cAMP (b-cAMP) and streptavidin labeled with Europium-W8044 chelate (Eu-SA). Light pulse at 320 nm excites the europium of the cAMP tracer and the energy emitted is transferred to the Alexa molecule bound to the cAMP antibody, generating a TR-FRET signal at 665 nm. Residual energy from the europium will produce a light at 620 nm. The native unlabeled cAMP from cell lysates competes with the europium-cAMP tracer for antibody binding and reversely reduces the emission signal of Alexa by interrupting FRET between the two labeled molecules. Both emission signals from the FRET donor (620 nm) and the acceptor (665 nm) can be detected by a plate reader in the TRF mode. Expression of result in fluorescence ratio (665 nm/620 nm) helps to normalize differences due to cell density and reagent dispensing. This assay was successfully optimized to a 1536-well plate format.\nNCGC Assay Protocol Summary: A Chinese hamster ovary (CHO) cell line stably expressing the NPS receptor (CHO-NPSR) was obtained from Dr. Heilig lab at NIAAA and maintained in F-12 Kaighn's media (Invitrogen, Carlsbad, CA, 21127) supplemented with 10 % FBS, 100 units/ml penicillin, 100 ug/ml streptomycin and 250 ug/ml geneticin at 37C, 5% CO2 in a humidified atmosphere. Before the assay, aliquots of cells were frozen and stored at -135C. The assay was performed in 1536-well format. Data are reported for both the ratio of the two emission wavelengths, and also for the component 'donor' channel, Em2=620. Data were normalized to the controls for basal activity (DMSO only) and 100% inhibition (No NPS control). IC50 values were determined from concentration-response data modeled with the standard Hill equation. NPS 1536-well assay protocol: (1) Fresh or frozen CHO-NPSR cells were suspended in F-12 Kaighn's media supplemented with 10 % FBS, 100 units/ml penicillin and 100 ug/ml streptomycin. Cells were plated at 4 ul/well (1200 cells) to white, tissue culture treated 1536-well plates, and then cultured at 37C, 5 % CO2 for 16 to 30 hours. (2) Add 23 nl/well of compound in DMSO solution. The final titration for each compound was between 0.6 nM and 46 uM. (3) Add 1 ul of stimulation reagent (1X HBSS buffer, 5 mM HEPES, 0.1% BSA, 500 uM RO-201724 (Sigma-Aldrich, B8279), 1.5% Alexa 647-labeled anti-cAMP antibody (from Perkin Elmer), 100 nM NPS) (4) Incubation at 37C, 5 % CO2 for 60 min. (5) Add 1 ul/well detection reagent. Detection reagent was prepared by adding biotin labeled cAMP (4%), streptavidin labeled with Europium-W8044 chelate (1.33%) and TritonX-100 (1%) to detection buffer. […]"}
{"molecule": "C[N+]1=C(/C=C/Nc2ccccc2)C(C)(C)c2ccccc21", "activity change, negative = inhibition": "inactive: 4.33% [at 46.1 µM]"}
{"molecule": "O=C1NC(=O)N(Cc2ccccc2)C(=O)/C1=C\\C=C\\c1ccco1", "activity change, negative = inhibition": "inactive: -29.6%"}
{"molecule": "C=CCN1CC[C@@]2(C)c3cc(O)ccc3CC1[C@@H]2C", "activity change, negative = inhibition": "inactive: 19.9%"}
{"molecule": "C[C@]12CCC(=O)C=C1CC[C@@H]1[C@@H]2CC[C@]2(C)C(=O)CC[C@@H]12", "activity change, negative = inhibition": "inactive: -33.1%"}
{"molecule": "O=c1[nH]c2ccccc2n1C1CCN(CCCC(c2ccc(F)cc2)c2ccc(F)cc2)CC1", "Potency": "active: 12.6 µM and active: 6.31 µM"}
{"molecule": "CN[C@H](C)[C@H](O)c1ccccc1", "activity change, negative = inhibition": "inactive: 8.86%"}
{"molecule": "CNCCCN1c2ccccc2CCc2ccccc21", "activity change, negative = inhibition": "inactive: -42.7%"}
{"molecule": "COC(=O)N1CCN(C(=O)Cc2ccc(Cl)c(Cl)c2)C(CN2CCCC2)C1", "note": "(centres undefined)", "activity change, negative = inhibition": "inactive: -7.57%"}
{"molecule": "O=C(O)c1nn(Cc2ccc(Cl)cc2Cl)c2ccccc12", "activity change, negative = inhibition": "inactive: -23.5%"}
{"molecule": "CC[C@@H](CO)NC(=O)[C@@H]1C=C2c3cccc4c3c(cn4C)C[C@H]2N(C)C1", "Potency": "inactive"}
{"molecule": "c1ccc2c(c1)OCC(C1=NCCN1)O2", "note": "(centres undefined)", "activity change, negative = inhibition": "inactive: 16.5%"}
{"molecule": "OCc1cnc[nH]1", "activity change, negative = inhibition": "inactive: -6.7%"}
{"molecule": "CC(=O)[C@H]1CC[C@H]2[C@@H]3CCC4=CC(=O)CC[C@]4(C)[C@H]3CC[C@]12C", "Potency": "inactive"}
{"molecule": "CC(=O)N1CCN(c2ccc(OC[C@H]3CO[C@](Cn4ccnc4)(c4ccc(Cl)cc4Cl)O3)cc2)CC1", "Potency": "inactive"}
{"molecule": "COc1ccc2[nH]cc(CCN)c2c1", "activity change, negative = inhibition": "inactive: 5.01%"}
{"molecule": "CN(C)C(=O)C(CCN1CCC(O)(c2ccc(Cl)cc2)CC1)(c1ccccc1)c1ccccc1", "activity change, negative = inhibition": "inactive: -20.3%"}
{"molecule": "Cc1cc(C)cc(N2C(=O)NC(=O)/C(=C\\c3cccn3-c3ccc(Cl)cc3)C2=O)c1", "Potency": "active: 5.01 µM"}
{"molecule": "COc1ccc(CNC(=O)/C=C/c2ccc3[nH]cc(CCN(C)C)c3c2)cc1", "activity change, negative = inhibition": "inactive: 9.07%"}
{"molecule": "CC(Cc1ccc(O)cc1)NCC(O)c1cc(O)cc(O)c1", "note": "(centres undefined)", "activity change, negative = inhibition": "inactive: 5.8%"}
{"molecule": "CC[C@]12C=CCN3CCC4(c5cc(Br)c(OC)cc5N(C)C4[C@@](O)(C(=O)OC)[C@@H]1OC(C)=O)C32", "note": "(some centres undefined)", "activity change, negative = inhibition": "inactive: -31.8%"}
{"molecule": "O=C1NC(=O)N(CCc2ccc(F)cc2)C(=O)/C1=C\\C=C\\c1ccccc1", "activity change, negative = inhibition": "inactive: -58.8%"}
{"molecule": "COc1cc([C@@H]2c3cc4c(cc3[C@H](O)[C@H]3COC(=O)[C@H]23)OCO4)cc(OC)c1OC", "activity change, negative = inhibition": "inactive: -1.95%"}
{"molecule": "NC(N)=N/N=C/c1c(Cl)cccc1Cl", "Potency": "inactive"}
{"molecule": "Cc1c2ccncc2c(C)c2c1[nH]c1ccccc12", "activity change, negative = inhibition": "inactive: -55.3%"}
{"molecule": "C=CCN1CCC2(C)c3cc(O)ccc3CC1C2C", "note": "(centres undefined)", "activity change, negative = inhibition": "inactive: -6.35% [at 46.1 µM]"}
{"molecule": "O=C1NC(=O)N(c2ccccc2)C(=O)/C1=C\\c1ccc([N+](=O)[O-])s1", "activity change, negative = inhibition": "inactive: -5.48%"}
{"molecule": "O=[N+]([O-])c1ccc(C2[C@H]3C(c4ccccc4)=NC4(CCCCC4)N23)cc1", "note": "(some centres undefined)", "activity change, negative = inhibition": "inactive: -25.9% [at 46.1 µM]"}
{"molecule": "Oc1ccc2c3c1O[C@H]1c4[nH]c5ccccc5c4C[C@@]4(O)C(C2)N(CC2CC2)CC[C@]314", "activity change, negative = inhibition": "inactive: -7.57%"}
{"molecule": "Cc1ccc(C(=O)N[C@@H](C)CN2C3=NC[C@@H](Cc4ccccc4)N3C[C@H]2Cc2ccc(O)cc2)cc1Br", "activity change, negative = inhibition": "inactive: 31.1%"}
